Assay results published in the supplement of paper PMC12217912.
This is one part of the list. The full chains were built here from the parent and the listed change. Inactive controls read about 0.05.

B1: TEV protease; numbered along this chain (parent)
chain: MGESLFKGPRDYNPISSSICHLTNESDGHTTSLYGIGFGPFIITNKHLFRRNNGTLVVQSLHGVFKVKDTTTLQQHLVDGRDMIIIRMPKDFPPFPQKLKFREPQREERICLVTTNFQTKSMSSMVSDTSCTFPSGDGIFWKHWIQTKDGQCGSPLVSTRDGFIVGIHSASNFTNTNNYFTSVPKNFMELLTNQEAQQWVSGWRLNADSVLWGGHKVFMVKPEEPFQPVKEATQL

Variants of: B1
Test: raw area under fraction-flipped curve 0-4 h after induction (AUC4h, not background-subtracted), DNA-recorder readout of cleavage of the substrate (dimensionless); higher = more cleavage of the substrate by the protease variant
Details: temperature: 34 °C; time window: 0-4 h after rhamnose induction
Description: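 In vivo DNA recorder in E. coli TOP10(DE3) ΔrhaA at 34 °C. Each TEVp single-site mutant (parent TEVp 0) is paired with a single-site variant of the 7-mer TEVs (canonical ENLYFQ|S). The substrate sits between flexible linkers in a Bxb1-sfGFP-TEVs-SsrA fusion, so cleavage stabilises Bxb1 and speeds flipping of a recombination array, read by NGS. The value is the raw area under the fraction-flipped curve over 0-4 h after rhamnose induction (AUC4h), with ≥20 reads per time point. It is not background-subtracted; inactive controls average about 0.047.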
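Also: Bxb1 expression induced with 0.2% (w/v) L-rhamnose at OD600 near 0.5, cultures sampled hourly, flipped fraction per protease–substrate barcode pair counted by paired-end Illumina sequencing.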

| Variant | area with substrate ENLYFQA | area with substrate ENLYFQC | area with substrate ENLYFQH | area with substrate ENLYFQI | area with substrate ENLYFQL | area with substrate ENLYFQP | area with substrate ENLYFQR | area with substrate ENLYFQS | area with substrate ENLYFQT | area with substrate ENLYFQW | area with substrate ENLYFQD | area with substrate ENLYFQF | area with substrate ENLYFQG | area with substrate ENLYFQK | area with substrate ENLYFQN | area with substrate ENLYFQM | area with substrate ENLYFQQ | area with substrate ENLYFQV | area with substrate ENLYFQY | area with substrate ENLYFQE |
| --- | --- | --- | --- | --- | --- | --- | --- | --- | --- | --- | --- | --- | --- | --- | --- | --- | --- | --- | --- | --- |
| MGESLFKGPRDYNPISSSICHLTNESDGHTTSLYGIGFGPFIITNKHLFRRNNGTLVVQSLHGVFKVKDTTTLQQHLVDGRDMIIIRMPKDFPPFPQKLKFREPQREERICLVTTNFQTKSMSSMVSDTSCTFPSGDGIFWKHWIQTKDGQCGSPLVSTRDGFIVGIHSASNFTNTNNYFTSVPKNFMELLTNQEAQQWVTGWRLNADSVLWGGHKVFMVKPEEPFQPVKEATQL [S201T] | 0.132 | 0.144 | 0.109 | 0.0602 | 0.0382 | 0.0595 | 0.0561 | 0.123 | 0.0584 | 0.065 | – | – | – | – | – | – | – | – | – | – |
| MGESLFKGPRDYNPISSSICHLTNESDGHTTSLYGIGFGPFIITNKHLFRRNNGTLVVQSLHGVFKVKDTTTLQSHLVDGRDMIIIRMPKDFPPFPQKLKFREPQREERICLVTTNFQTKSMSSMVSDTSCTFPSGDGIFWKHWIQTKDGQCGSPLVSTRDGFIVGIHSASNFTNTNNYFTSVPKNFMELLTNQEAQQWVSGWRLNADSVLWGGHKVFMVKPEEPFQPVKEATQL [Q75S] | 0.112 | – | 0.0659 | – | 0.0564 | – | 0.069 | 0.083 | 0.0499 | 0.041 | 0.0644 | 0.0472 | 0.0749 | 0.0534 | 0.0744 | – | – | – | – | – |
| MGESLFKGPRDYNPISSSICHLTNESDGHTTSLYGIGFGPFIITNKHLFRRNNGTLVVQSLHGVFKVKDTTTLQQHLVDGRDMIIIRMPKDFPPFPQKLKFREPQREERICLVTTNFQTKSMSSMVSDTSCTFPSGDGIFWKHWIQTKDGQCGSPLVSTRDGFIVGIHSASNFTNTNNYFTSVPKNFMELLTNQEAQQWVSGWRLNADSVLWGLHKVFMVKPEEPFQPVKEATQL [G214L] | 0.0728 | 0.0975 | 0.059 | – | 0.0667 | – | – | 0.0769 | – | 0.0509 | – | – | – | 0.0678 | 0.0647 | 0.0478 | 0.0539 | – | – | – |
| MGESLFKGPRDYNPISSSICHLTNESDGHTTSLYGIGFGPFIITNKHLFRRNNGTLVVQSLHGVFKVKDTTTLQQHLVDGRDMIIIRMPKDFPPFPQKLKFREPQRVERICLVTTNFQTKSMSSMVSDTSCTFPSGDGIFWKHWIQTKDGQCGSPLVSTRDGFIVGIHSASNFTNTNNYFTSVPKNFMELLTNQEAQQWVSGWRLNADSVLWGGHKVFMVKPEEPFQPVKEATQL [E107V] | 0.0936 | – | 0.0749 | 0.0579 | – | 0.063 | 0.0085 | 0.0975 | 0.0636 | 0.0652 | 0.0668 | – | – | 0.0596 | 0.0785 | – | – | 0.0598 | 0.0571 | – |
| MGESLFKGPRDYNPISSSICHLTNESDGHTTSLYGIGFGPFIITNKHLFRRNNGTLVVQSLHGVFKVKDTTTLQQHLVDGRDMIIIRMPKDFPPFPQKLKFREPQREERICLVTTNFQTKSMSSMVSDRSCTFPSGDGIFWKHWIQTKDGQCGSPLVSTRDGFIVGIHSASNFTNTNNYFTSVPKNFMELLTNQEAQQWVSGWRLNADSVLWGGHKVFMVKPEEPFQPVKEATQL [T129R] | 0.106 | – | – | 0.0594 | 0.0642 | 0.0684 | 0.0555 | 0.0994 | – | 0.0672 | 0.0832 | – | – | – | 0.0803 | 0.0778 | 0.0854 | 0.0462 | – | – |
| MGESLFKGPRDYNPISSSICHLTNESDGHTTSLYGIGFGPFIITNKHLFRRNNGTLVVQSLHGVFKVKDTTTLQQHLVDGRDMIIIRMPKDFPPFPQKLKFREPQREERICLVTTNFQTKSMSSMVSDTSCTFPSGDGIFWKHWIQTKDGQCGSPLVSTRDGFIVGIHSASNFTNTNNYFTSVPKNFFELLTNQEAQQWVSGWRLNADSVLWGGHKVFMVKPEEPFQPVKEATQL [M188F] | 0.0844 | 0.128 | 0.0819 | – | 0.0669 | 0.0622 | 0.0576 | 0.0984 | – | 0.0398 | 0.0543 | – | – | 0.0547 | 0.0404 | – | 0.068 | – | – | – |
| MGESLFKGPRDYNPISSSICHLTNESDGHTTSLYGIGFGPFIITNKHLFRRNNGTLVVQSLHGVFKVKDTTTLQQHLVDGRDMIIIRMPKDFPPFPQKLKFRNPQREERICLVTTNFQTKSMSSMVSDTSCTFPSGDGIFWKHWIQTKDGQCGSPLVSTRDGFIVGIHSASNFTNTNNYFTSVPKNFMELLTNQEAQQWVSGWRLNADSVLWGGHKVFMVKPEEPFQPVKEATQL [E103N] | 0.0668 | – | – | – | 0.053 | – | – | 0.106 | – | 0.0731 | – | – | – | – | – | – | – | 0.0664 | 0.0771 | – |
| MGESLFKGPRDYNPISSSICHLTNESDGHTTSLYGIGFGPFIITNKHLFRRNNGTLVVQSLHGVFKVKDTTTLQQHLVDGRDMIIIRMPKDFPPFPQKLKFREPQREERICLVTTNFQTKSMSSMVSDTSCTFPSGDGIFWKEWIQTKDGQCGSPLVSTRDGFIVGIHSASNFTNTNNYFTSVPKNFMELLTNQEAQQWVSGWRLNADSVLWGGHKVFMVKPEEPFQPVKEATQL [H143E] | 0.0666 | 0.0565 | 0.0554 | 0.047 | – | 0.0536 | 0.0652 | 0.0577 | 0.0424 | – | 0.0736 | 0.0537 | 0.0289 | 0.0537 | 0.0428 | 0.0523 | – | 0.0615 | 0.0563 | 0.0826 |
| MGESLFKGPRDYNPISSSICHLTNESDGHTTSLYGIGFGPFIITNKHLFRRNNGTLVVQSLHGVFKVKDTTTLQQHLVDGRDMIIIRMPKDFEPFPQKLKFREPQREERICLVTTNFQTKSMSSMVSDTSCTFPSGDGIFWKHWIQTKDGQCGSPLVSTRDGFIVGIHSASNFTNTNNYFTSVPKNFMELLTNQEAQQWVSGWRLNADSVLWGGHKVFMVKPEEPFQPVKEATQL [P93E] | 0.0526 | 0.137 | – | 0.102 | – | 0.0671 | – | 0.127 | 0.0673 | 0.0711 | – | – | 0.131 | 0.0542 | – | 0.106 | – | – | – | – |
| MGESLFKGPRDYNPISSSICHLTNESDGHTTSLYGIGFGPFIITNKHLFRRNNGTLVVQSLHGVFKVKDTTTLQQHLVDGRDMIIIRMPKDFPPFPQKLKFREPQREERICLVTTNFQTKSMSSMVSDTSCTFPSGDGIFWKHWIQTKDGQCGSPLVSTRDGFIVGIHSASNFTNTNNYFTSVPKNFMEKLTNQEAQQWVSGWRLNADSVLWGGHKVFMVKPEEPFQPVKEATQL [L190K] | 0.104 | 0.1 | – | 0.0522 | 0.063 | – | 0.054 | 0.103 | 0.0608 | 0.0608 | 0.0703 | 0.0645 | – | – | 0.0781 | – | – | 0.0625 | 0.0738 | – |
